Source: the supplement of paper PMC8748497
Some of the results follow.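 How the source made its calls: active = GRHL reporter fold change of at least 2 over DMSO at 10 µM; inactive = below 2-fold.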 Most values come without repeats; read them as rough.

What follows are molecules tested on HEK293 GRHL-luciferase reporter (assay: GRHL luciferase reporter activity, fold change over DMSO control; higher = stronger GRHL reporter activation). Details: 10 µM; 24 h.
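Further: stable HEK293 line carrying repeated GRHL consensus sites upstream of a minimal promoter driving luciferase, luminescence read 24 h post-treatment, normalized to 0.5% DMSO vehicle wells.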

GRHL luciferase reporter activity, inactive:
O=S(=O)(c1cccc2cnccc12)N1CCCNCC1 0.832, C=C(C)[C@@H]1CC=C(CO)CC1 1.07, NC(Cc1ccc(F)cc1)C(=O)O (stereo not given) 1.3, NCCCC(N)C(=O)O (stereo not given) 1.14, COc1ccc(C(=O)CCC(=O)O)c2ccccc12 0.99, CCCCCCCCCCCCC[N+](C)(C)Cc1ccccc1 0.312, C[C@H]1C[C@H]2[C@@H]3CCC4=CC(=O)C=C[C@]4(C)[C@@]3(F)[C@@H](O)C[C@]2(C)[C@@]1(O)C(=O)COP(=O)(O)O 1.27, CC(C)COC(=O)c1ccc(N)cc1 1.32, CC(=O)Oc1cccc(C(=O)O)c1OC(C)=O 0.996, CCC1(C)OC(=O)N(C)C1=O (stereo not given) 0.862, CN(C)CCC=C1c2ccccc2COc2ccccc21 1.21, C=C(C)[C@@H]1CC[C@]2(C(=O)O)CC[C@]3(C)[C@H](CC[C@@H]4[C@@]5(C)CC[C@H](O)C(C)(C)[C@@H]5CC[C@]43C)[C@@H]12 1.16, O=c1oc2cc(O)ccc2s1 1.27, CC(C)[C@H]1CC[C@H](C(=O)N[C@H](Cc2ccccc2)C(=O)O)CC1 1.09, CC1CC(OC(=O)c2ccccc2O)CC(C)(C)C1 (stereo not given) 0.723, O=C(O)c1cc(=O)c2ccccc2[nH]1 0.749, COCCCOc1cc(C[C@@H](C[C@H](N)[C@@H](O)C[C@H](C(=O)NCC(C)(C)C(N)=O)C(C)C)C(C)C)ccc1OC 1.12, O=C1C(O)=C(O)C(=O)C(O)=C1O 0.815, O=C[C@H](O)[C@H](O)CO 1.18, COC1=C[C@@H](C)[C@@H]2C[C@H]3OC(=O)C[C@H]4C(C)=C(OC)C(=O)[C@H]([C@@]2(C)C1=O)[C@@]34C 1.07, C=CC1=C(C(=O)O)N2C(=O)[C@@H](NC(=O)/C(=N\O)c3csc(N)n3)[C@H]2SC1 0.961, NS(=O)(=O)c1ccc(C(=O)O)cc1 1.19, CN(C)CCOc1ccc(/C(=C(/CCCl)c2ccccc2)c2ccccc2)cc1 0.14, CC1=CC(=O)NS(=O)(=O)O1 1.05, CC(=O)O[C@H]1CC[C@@]2(C)[C@@H](CC[C@@H]3[C@@H]2CC(=O)[C@]2(C)[C@@H]4[C@H](C[C@@H]32)O[C@]2(CC[C@@H](C)CO2)[C@H]4C)C1 0.94, CC(=O)O[C@H]1C[C@@H](OC(C)=O)C(C)(C)[C@@H]2C[C@@H](OC(C)=O)[C@@]3(C)C4=CC(=O)O[C@@H](c5ccoc5)[C@]4(C)CC[C@@H]3[C@@]12C 1.1, O=C(O)CCNC(=O)c1ccc(/N=N/c2ccc(O)c(C(=O)O)c2)cc1 1.04, C[C@]12C=CC(=O)C=C1CC[C@@H]1[C@@H]2[C@@H](O)C[C@@]2(C)[C@H]1CC[C@]2(O)C(=O)COP(=O)(O)O 1.33, CCCCNc1ccc(C(=O)OCCOCCOCCOCCOCCOCCOCCOCCOCCOC)cc1 1.2, C[C@@H]1C[C@H]2[C@@H]3C[C@H](F)C4=CC(=O)C=C[C@]4(C)[C@@]3(F)[C@@H](O)C[C@]2(C)[C@@]1(O)C(=O)COC(=O)C(C)(C)C 1.07, O=C(O)/C=C/c1ccc(Cn2ccnc2)cc1 0.823, CC(=O)N[C@H]1[C@H]([C@@H](O)[C@@H](O)CO)O[C@@](O)(C(=O)O)C[C@@H]1O 0.891, CC(C)(CO)C(O)C(=O)NCCCO (stereo not given) 0.937, CCOC(=O)c1ncn2c1CN(C)C(=O)c1cc(F)ccc1-2 1.11, CCN[C@@H]1C[C@H](N)[C@@H](O[C@H]2OC(CN)=CC[C@H]2N)[C@H](O)[C@H]1O[C@H]1OC[C@](C)(O)[C@H](NC)[C@H]1O 1.03, C[N+]1(C)[C@@H]2CC[C@H]1C[C@@H](OC(=O)C(O)c1ccccc1)C2 (stereo not given in full) 0.896, C[C@H]1O[C@@H](n2cc(F)c(=O)[nH]c2=O)[C@H](O)[C@@H]1O 0.918, O=C(O)CC(O)(CC(=O)O)C(=O)O 0.796

GRHL luciferase reporter activity, active:
CC1=C2C(=CO[C@H](C)[C@H]2C)C(=O)C(C(=O)O)=C1O 6.28, COc1ccc2oc(-c3ccccc3)c(OC)c(=O)c2c1 3.35
